# Measured values reported in PubChem BioAssay AID894 (National Center for Advancing Translational Sciences (NCATS), 2007).
# In all, about 150,000 compounds went through this assay and about 6,500 (4.3%) were called active. Roughly 12% stayed inconclusive and do not appear here. Calls follow the shape of the dose curve; as a rule, active = well fitted inhibition curve with a large enough effect (not every such curve was filed as active); inconclusive = small, poorly fitted or top-dose-only effect, or another doubt; inactive = no such curve, though single readings can be large or run the other way. The entries are a selection whose mix differs from that of the whole data set. More than one record can exist for a structure, and the calls need not agree.
# Molecular target: 15-hydroxyprostaglandin dehydrogenase [NAD(+)] (Homo sapiens) (UniProt P15428)
# Experiment: qHTS Assay for Inhibitors of HPGD (15-Hydroxyprostaglandin Dehydrogenase)
# Details: purified HPGD, NADH fluorescence kinetic, PGE2 substrate; activity change, negative = inhibition: stronger effect = lower value
# From the text: Human 15-Hydroxyprostaglandin dehydrogenase (HPGD) catalyzes the inactivation of prostaglandin E2, and plays a major role in cancer biology by antagonizing the oncogenic potential of cyclooxygenase type 2 (COX2). Assays are available, based on absorbance/fluorescence increase of NADH with the substrate 15-OH prostaglandin E2. References 1. Myung SJ, Rerko RM, Yan M, Platzer P, Guda K, Dotson A, Lawrence E, Dannenberg AJ, Lovgren AK, Luo G, Pretlow TP, Newman RA, Willis J, Dawson D, Markowitz SD. 15-Hydroxyprostaglandin dehydrogenase is an in vivo suppressor of colon tumorigenesis. […] 2. Yan M, Rerko RM, Platzer P, Dawson D, Willis J, Tong M, Lawrence E, Lutterbaugh J, Lu S, Willson JK, Luo G, Hensold J, Tai HH, Wilson K, Markowitz SD. 15-Hydroxyprostaglandin dehydrogenase, a COX-2 oncogene antagonist, is a TGF-beta-induced suppressor of human gastrointestinal cancers. Proc Natl Acad Sci U S A. 2004 Dec 14;101(50):17468-73. 3. Yang L, Amann JM, Kikuchi T, Porta R, Guix M, Gonzalez A, Park KH, Billheimer D, Arteaga CL, Tai HH, Dubois R, Carbone DP, Johnson DH. Inhibition of Epidermal Growth Factor Receptor Signaling Elevates 15-Hydroxyprostaglandin Dehydrogenase in Non-Small-Cell Lung Cancer. Cancer Res. 2007 Jun 15;67(12):5587-5593. Inhibition of HPGD activity was screened by utilizing prostaglandin as an electron donor and NAD+ as an electron acceptor/cofactor. An increase in the fluorescence intensity due to conversion of NAD+ to NADH was used to measure the enzyme activity. NIH Chemical Genomics Center [NCGC] Structural Genomics Consortium [SGC]
# Buffer: 50 mM Tris-HCl, 0.01% Tween 20, pH 8. Enzyme Buffer: 50 mM Tris-HCl, 0.5 mM NAD+ and 0.01% Tween 20, pH 8. Reagents/Controls: Buffer in columns 3 and 4 as negative control (no enzyme). Substrate/cofactor solution: 1 mM NAD+ and 30 uM prostaglandin (Sigma, prostaglandin E2, # P5640) final concentrations dispensed throughout the plate. Enzyme: 20 nM HPGD final concentration in columns 1, 2, 5-48. Column 1 and 2 is neutral (100% activity). A titration of control inhibitor GW5074 (G6416 Sigma-Aldrich, St. Louis, MO) top concentration 10 mM in DMSO, then 1:2 dilution for a total of 16 concentrations in duplicate) was pin-transferred into column 2. Assay Steps: Three uL of enzyme were dispensed to 1536-well Greiner black solid bottom plates. Compounds and control inhibitor (23 nL) were transferred via Kalypsys PinTool. The plates were incubated for 15 min at room temperature, and then 1 uL of substrate/cofactor solution was added to start the reaction. The plates were immediately transferred to and read 5 times every 30 seconds on ViewLux High-throughput CCD imager (Perkin-Elmer) using 360 nm excitation and 450 nm emission fluorescence protocol. The fluorescence intensity difference between the last and the first time points was used to compute reaction progress.
# % is scaled to controls: 0 for no effect and ±100 for the full control effect; potency is read from the fitted curve at half-maximal effect.
# UniProt P15428, sequence (P15428 whole entry, looked up): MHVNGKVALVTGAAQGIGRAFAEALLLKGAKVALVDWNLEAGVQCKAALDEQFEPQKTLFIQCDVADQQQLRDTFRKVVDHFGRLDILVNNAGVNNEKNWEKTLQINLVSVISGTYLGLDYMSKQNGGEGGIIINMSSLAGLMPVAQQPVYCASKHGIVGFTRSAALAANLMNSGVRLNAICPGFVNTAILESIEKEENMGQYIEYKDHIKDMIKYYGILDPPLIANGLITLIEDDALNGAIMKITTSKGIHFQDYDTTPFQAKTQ
Compound,"activity change, negative = inhibition",Potency
N#C/C(=C\c1ccc(O)c(O)c1)C(=O)Nc1ccccc1,inactive: -18.3%,
CCN(CC)C(=O)c1sc(NC(=O)c2ccc(C)c([N+](=O)[O-])c2)c(C#N)c1C,,active: 28.2 µM
NC(=O)/C(=N\OC(=O)c1ccco1)c1nc(-c2ccc(Br)cc2)cs1,,active: 12.6 µM
Cc1ccc(/C=N/n2c(C3CCCCC3)n[nH]c2=S)s1,,active: 11.2 µM
Cc1c(Cc2ccccc2)c(=O)oc2cc(OCC(=O)c3ccccc3)ccc12,inactive: 115%,
Cc1ccc(-c2c(C#N)c(N)nc3c2CCCC3)s1,inactive: 62.3%,
CC(=O)c1cccc(NC(=S)NC(=O)CC(C)C)c1,,active: 15.8 µM
COCCOC(=O)C1=C(C)NC(SCC(=O)NC(C)(C)C)=C(C#N)C1c1ccco1 (stereo unspecified),,active: 15.8 µM
O=C(/C=C/c1ccc(O)c(O)c1)OC(Cc1ccc(O)c(O)c1)C(=O)O (stereo unspecified),inactive: -15.1%,
COc1ccc(C(NC(=O)/C=C\c2ccco2)c2ccc(OC)c(OC)c2)cc1 (stereo unspecified),inactive: -20.1%,
Cc1nc2ccc(NC(=O)c3ccc(F)c(S(=O)(=O)N4CCOCC4)c3)cc2s1,inactive: 781%,
N#C/C(=C\C=C\c1ccccc1)C(=O)Nc1ccccc1,inactive: -9.48%,
Clc1ccc(-c2nnc(-c3ccc(Br)o3)o2)c(Cl)c1,inactive: 48.3%,
Cc1cc(=O)c2cc(Cl)ccc2[nH]1,inactive: -13.5%,
CCOC(=O)C1CCCN(C(=O)CC(c2ccccc2)c2ccccc2)C1 (stereo unspecified),,active: 28.2 µM
COc1cc(NS(=O)(=O)c2ccc(NC(=S)NC(=O)c3sc4ccccc4c3Cl)cc2)nc(OC)n1,,active: 25.1 µM
